Assay results reported in patent publication US11178870B2 (priority 2017, dated 2021).

Assays:
Format in all cases: in vivo
Plasmopara viticola = assay: Test Example G: Downy mildew on vine; conditions: for Test G control value (downy mildew on vine): 250 ppm spray, investigated 7 to 10 days after inoculation; for Test G control value (downy mildew on vine) / Test G control value: 2.5 ml/pot; for control value, Test G (downy mildew on vine): 250 ppm sprayed (2.5 ml/pot) before inoculation, assessed 7 to 10 days after inoculation; for Test G control value: Downy mildew on vine, 250 ppm sprayed, 7 to 10 days after inoculation
[1] = test system: Blumeria graminis f. sp. hordei; assay: Test Example D: Powdery mildew on barley; conditions: for Test D control value (powdery mildew on barley): class of control value, Table 7; for control value, Test D (powdery mildew on barley): Table 7, Test D; for Test D control value: Powdery mildew on barley
Botrytis cinerea = assay: Test Example B: Gray mold on tomato; conditions: for Test B control value (gray mold on tomato): class of control value, Table 7; for control value, Test B (gray mold on tomato): Table 7, Test B; for Test B control value: Gray mold on tomato
Alternaia brassicicola = assay: Test Example C: Alternaria sooty spot on cabbage; conditions: for Test C control value (Alternaria sooty spot on cabbage): class of control value, Table 7; for control value, Test C (Alternaria sooty spot on cabbage): Table 7, Test C; for Test C control value: Alternaria sooty spot on cabbage
Puccinia recondita = assay: Test Example E: Brown rust on wheat; conditions: for Test E control value (brown rust on wheat): class of control value, Table 7; for control value, Test E (brown rust on wheat): Table 7, Test E; for Test E control value: Brown rust on wheat

Structure (SMILES) | control value, Test G (downy mildew on vine) (Plasmopara viticola) | control value, Test D (powdery mildew on barley) [1] | control value, Test B (gray mold on tomato) (Botrytis cinerea) | control value, Test C (Alternaria sooty spot on cabbage) (Alternaia brassicicola) | control value, Test E (brown rust on wheat) (Puccinia recondita) | further results
CCn1c(-c2ccccc2F)c(-n2cc(F)cn2)ccc1=O [Compound 382] |  |  |  |  |  | Test G control value (downy mildew on vine) (Plasmopara viticola): L (L shows the control value of 50% or less); Test D control value (powdery mildew on barley) [1]: H (H shows the control value more than 50%); Test B control value (gray mold on tomato) (Botrytis cinerea): H (H shows the control value more than 50%); Test C control value (Alternaria sooty spot on cabbage) (Alternaia brassicicola): L (L shows the control value of 50% or less); Test E control value (brown rust on wheat) (Puccinia recondita): H (H shows the control value more than 50%)
CCn1c(-c2ccc(OC)cc2F)c(-n2cc(F)cn2)cc(Br)c1=O [Compound 302] | H (H shows the control value more than 50%) | H (H shows the control value more than 50%) | H (H shows the control value more than 50%) | H (H shows the control value more than 50%) | H (H shows the control value more than 50%) | 
Cc1cnn(-c2ccc(=O)n(C)c2-c2ccc(F)cc2C)c1 [Compound 511] |  |  |  |  |  | Test G control value (downy mildew on vine) (Plasmopara viticola): L (L shows the control value of 50% or less); Test D control value (powdery mildew on barley) [1]: H (H shows the control value more than 50%); Test B control value (gray mold on tomato) (Botrytis cinerea): L (L shows the control value of 50% or less); Test C control value (Alternaria sooty spot on cabbage) (Alternaia brassicicola): L (L shows the control value of 50% or less); Test E control value (brown rust on wheat) (Puccinia recondita): L (L shows the control value of 50% or less)
O=c1c(Cl)cc(-n2cc(F)cn2)c(-c2ccc(F)cc2Cl)n1CC(F)F [Compound 426] |  |  |  |  |  | Test G control value (downy mildew on vine) (Plasmopara viticola): L (L shows the control value of 50% or less); Test D control value (powdery mildew on barley) [1]: H (H shows the control value more than 50%); Test B control value (gray mold on tomato) (Botrytis cinerea): H (H shows the control value more than 50%); Test C control value (Alternaria sooty spot on cabbage) (Alternaia brassicicola): H (H shows the control value more than 50%); Test E control value (brown rust on wheat) (Puccinia recondita): H (H shows the control value more than 50%)
Cn1c(-c2c(F)cccc2F)c(-n2cc(F)cn2)cc(Cl)c1=O [Compound 461] |  |  |  |  |  | Test G control value (downy mildew on vine) (Plasmopara viticola): L (L shows the control value of 50% or less); Test D control value (powdery mildew on barley) [1]: H (H shows the control value more than 50%); Test B control value (gray mold on tomato) (Botrytis cinerea): H (H shows the control value more than 50%); Test C control value (Alternaria sooty spot on cabbage) (Alternaia brassicicola): H (H shows the control value more than 50%); Test E control value (brown rust on wheat) (Puccinia recondita): H (H shows the control value more than 50%)
CCn1c(-c2ccc(OC)cc2Cl)c(-n2cc(F)cn2)cc(Br)c1=O [Compound 363] | L (L shows the control value of 50% or less) | L (L shows the control value of 50% or less) | H (H shows the control value more than 50%) | H (H shows the control value more than 50%) | H (H shows the control value more than 50%) | 
Cc1cnn(-c2cc(Br)c(=O)n(C)c2-c2c(F)cccc2F)c1Cl [Compound 189] | L (L shows the control value of 50% or less) | H (H shows the control value more than 50%) | H (H shows the control value more than 50%) | H (H shows the control value more than 50%) | H (H shows the control value more than 50%) | 
CCn1c(-c2c(F)cccc2F)c(-c2cnc(NC)o2)cc(Cl)c1=O [Compound 134] |  |  |  |  |  | Test G control value (Plasmopara viticola): L (L shows the control value of 50% or less); Test D control value [1]: L (L shows the control value of 50% or less); Test B control value (Botrytis cinerea): H (H shows the control value more than 50%); Test C control value (Alternaia brassicicola): L (L shows the control value of 50% or less); Test E control value (Puccinia recondita): L (L shows the control value of 50% or less)
O=c1ccc(-c2sc(Cl)cc2Br)c(-c2c(F)cccc2F)n1CC(F)F [Compound 421] |  |  |  |  |  | Test G control value (downy mildew on vine) (Plasmopara viticola): L (L shows the control value of 50% or less); Test D control value (powdery mildew on barley) [1]: H (H shows the control value more than 50%); Test B control value (gray mold on tomato) (Botrytis cinerea): H (H shows the control value more than 50%); Test C control value (Alternaria sooty spot on cabbage) (Alternaia brassicicola): H (H shows the control value more than 50%); Test E control value (brown rust on wheat) (Puccinia recondita): H (H shows the control value more than 50%)
CCn1c(-c2c(F)cc(OC)cc2F)c(-c2cnco2)cc(Br)c1=O [Compound 90] |  |  |  |  |  | Test G control value (Plasmopara viticola): L (L shows the control value of 50% or less); Test D control value [1]: L (L shows the control value of 50% or less); Test B control value (Botrytis cinerea): H (H shows the control value more than 50%); Test C control value (Alternaia brassicicola): H (H shows the control value more than 50%); Test E control value (Puccinia recondita): H (H shows the control value more than 50%)
Cn1c(-c2c(F)cccc2F)c(-c2sc(Br)cc2Cl)cc(Br)c1=O [Compound 442] |  |  |  |  |  | Test G control value (downy mildew on vine) (Plasmopara viticola): L (L shows the control value of 50% or less); Test D control value (powdery mildew on barley) [1]: L (L shows the control value of 50% or less); Test B control value (gray mold on tomato) (Botrytis cinerea): L (L shows the control value of 50% or less); Test C control value (Alternaria sooty spot on cabbage) (Alternaia brassicicola): L (L shows the control value of 50% or less); Test E control value (brown rust on wheat) (Puccinia recondita): L (L shows the control value of 50% or less)
CCn1c(-c2c(F)cc(OC)cc2F)c(-c2cccnc2Cl)cc(Cl)c1=O [Compound 80] |  |  |  |  |  | Test G control value (Plasmopara viticola): L (L shows the control value of 50% or less); Test D control value [1]: H (H shows the control value more than 50%); Test B control value (Botrytis cinerea): H (H shows the control value more than 50%); Test C control value (Alternaia brassicicola): H (H shows the control value more than 50%); Test E control value (Puccinia recondita): H (H shows the control value more than 50%)
CCn1c(-c2c(F)cc(OC)cc2F)c(-n2cc(Br)c(C)n2)cc(Br)c1=O [Compound 151] |  |  |  |  |  | Test G control value (Plasmopara viticola): L (L shows the control value of 50% or less); Test D control value [1]: L (L shows the control value of 50% or less); Test B control value (Botrytis cinerea): H (H shows the control value more than 50%); Test C control value (Alternaia brassicicola): H (H shows the control value more than 50%); Test E control value (Puccinia recondita): H (H shows the control value more than 50%)
CCn1c(-c2ccccc2OC)c(-n2cc(Cl)cn2)cc(Cl)c1=O [Compound 243] | L (L shows the control value of 50% or less) | L (L shows the control value of 50% or less) | H (H shows the control value more than 50%) | H (H shows the control value more than 50%) | H (H shows the control value more than 50%) | 
CCn1c(-c2ccc(F)cc2Cl)c(-n2ncc(C)c2Cl)cc(Cl)c1=O [Compound 336] | H (H shows the control value more than 50%) | H (H shows the control value more than 50%) | H (H shows the control value more than 50%) | H (H shows the control value more than 50%) | H (H shows the control value more than 50%) | 
CCn1c(-c2ccc(OC)cc2Br)c(-n2cc(F)cn2)ccc1=O [Compound 354] | H (H shows the control value more than 50%) | H (H shows the control value more than 50%) | H (H shows the control value more than 50%) | H (H shows the control value more than 50%) | H (H shows the control value more than 50%) | 
O=c1c(Br)cc(-c2ccsc2Br)c(-c2c(F)cccc2F)n1CC(F)F [Compound 346] | H (H shows the control value more than 50%) | H (H shows the control value more than 50%) | H (H shows the control value more than 50%) | H (H shows the control value more than 50%) | H (H shows the control value more than 50%) | 
CCn1c(-c2ccccc2C)c(-n2ncc(C)c2Cl)cc(Br)c1=O [Compound 245] | L (L shows the control value of 50% or less) |  | H (H shows the control value more than 50%) | H (H shows the control value more than 50%) | H (H shows the control value more than 50%) | 
COc1ccc(-c2c(-n3cc(Cl)cn3)cc(Br)c(=O)n2CC(F)F)c(F)c1 [Compound 215] | H (H shows the control value more than 50%) |  | H (H shows the control value more than 50%) | H (H shows the control value more than 50%) | H (H shows the control value more than 50%) | 
CCn1c(-c2ccc(F)cc2Br)c(-n2cc(F)cn2)cc(Cl)c1=O [Compound 352] | L (L shows the control value of 50% or less) |  | H (H shows the control value more than 50%) | H (H shows the control value more than 50%) | H (H shows the control value more than 50%) | 
CCn1c(-c2ccccc2OC)c(-n2ncc(C)c2Cl)cc(Cl)c1=O [Compound 248] | L (L shows the control value of 50% or less) |  | H (H shows the control value more than 50%) | H (H shows the control value more than 50%) | H (H shows the control value more than 50%) | 
